This is one part of the list.
test system: HSkMC (human skeletal muscle cells); assay: cytotoxicity call (relative viability < 0.9); conditions: 10 µM

Row | Compound | cytotoxicity call
1 | C[C@H]1CN([C@@H](C)CO)C(=O)c2cccc(NS(=O)(=O)c3cccs3)c2O[C@@H]1CN(C)Cc1ccc(Oc2ccccc2)cc1 | inactive
2 | COc1ccc(S(=O)(=O)Nc2ccc3c(c2)C(=O)N([C@H](C)CO)C[C@@H](C)[C@@H](CN(C)C(=O)Nc2c(C)noc2C)OCCCC[C@@H](C)O3)cc1 | inactive
3 | C[C@H]1CN([C@@H](C)CO)C(=O)Cc2cc(NC(=O)Nc3cccc4ccccc34)ccc2O[C@@H]1CN(C)C(=O)Nc1ccc2c(c1)OCO2 | inactive
4 | Cc1ccc(S(=O)(=O)N(C)C[C@H]2OCCCC[C@H](C)Oc3ccc(NC(=O)Nc4cccc5ccccc45)cc3C(=O)N([C@H](C)CO)C[C@H]2C)cc1 | inactive
5 | C[C@@H]1CN([C@H](C)CO)C(=O)c2cccc(NC(=O)CCCCCC(=O)Nc3ccccc3N)c2O[C@@H]1CN(C)C(=O)Nc1ccc(C(F)(F)F)cc1 | inactive
6 | C[C@H](CO)N1C[C@H](C)[C@@H](CN(C)C(=O)Nc2cccc3ccccc23)Oc2c(NC(=O)Nc3ccc(F)cc3)cccc2C1=O | inactive
7 | O=C(C[C@H]1C=C[C@H](NC(=O)CN2CCOCC2)[C@H](CO)O1)NC1CCCCC1 | inactive
8 | C[C@H](CO)N1C[C@H](C)[C@H](CN(C)Cc2ccncc2)Oc2c(NS(=O)(=O)c3cn(C)cn3)cccc2C1=O | inactive
9 | CCOCC(O)COc1ccc(NC(=O)CC[S+](C)C)cc1.Cc1ccc(S(=O)(=O)[O-])cc1 (centres undefined) | inactive
10 | CC(C)N(CCCNC(=O)Nc1ccc(C(C)(C)C)cc1)C[C@H]1O[C@@H](n2ccc3c(N)ncnc32)[C@H](O)[C@@H]1O | inactive
11 | CC(C)CC#Cc1cnc2c(c1)C(=O)N([C@H](C)CO)C[C@@H](C)[C@H](CN(C)C(=O)c1ccc3c(c1)OCO3)O2 | inactive
12 | C[C@H](CO)N1C[C@H](C)[C@@H](CN(C)S(=O)(=O)c2cccs2)Oc2c(NC(=O)CCCN(C)C)cccc2C1=O | inactive
13 | Cc1ccc(C(=O)N2CCC(n3cc(C(C)(C)N)nn3)CC2)c(C)c1 | inactive
14 | COc1ccc(S(=O)(=O)Nc2ccc3c(c2)C(=O)N([C@H](C)CO)C[C@H](C)[C@H](CN(C)CC2CC2)O3)cc1 | inactive
15 | CCN1CCCC1=O | inactive
16 | O=C(N[C@@H](c1ccccc1)c1ccc2ccccc2n1)C1CCN(Cc2ccc(Cl)c(Cl)c2)CC1 | inactive
17 | C[C@@H]1CN([C@H](C)CO)S(=O)(=O)c2ccc(C#CC(C)(C)O)cc2O[C@H]1CN(C)Cc1ccccc1 | inactive
18 | C[C@@H]1CCCCO[C@@H](CN(C)C(=O)Nc2ccc3c(c2)OCO3)[C@H](C)CN([C@H](C)CO)C(=O)c2cc(NC(=O)Nc3ccc4c(c3)OCO4)ccc2O1 | inactive
19 | Cc1noc(C)c1S(=O)(=O)Nc1ccc2c(c1)CC(=O)N([C@@H](C)CO)C[C@H](C)[C@@H](CN(C)S(=O)(=O)c1cn(C)cn1)O2 | inactive
20 | Cc1noc(C)c1S(=O)(=O)Nc1cccc2c1O[C@@H](CN(C)C(=O)NC(C)C)[C@@H](C)CN([C@@H](C)CO)C2=O | inactive
21 | O=C(O)[C@H](O)[C@@H](O)[C@H](O[C@@H]1O[C@H](CO)[C@H](O)[C@H](O)[C@H]1O)[C@H](O)CO | inactive
22 | c1ccc([C@@H]2Oc3ccccc3[C@@H]3Oc4ccccc4C[C@@H]23)cc1 | inactive
23 | C[C@@H]1CN([C@@H](C)CO)C(=O)c2cc(NC(=O)Nc3ccccc3)ccc2O[C@@H](C)C/C=C\CO[C@H]1CN(C)S(=O)(=O)c1ccc(F)cc1 | inactive
24 | C[C@@H]1CN([C@@H](C)CO)C(=O)c2cccc(NS(=O)(=O)c3ccc(Cl)cc3)c2O[C@@H]1CN(C)Cc1ccc(C(=O)Nc2ccccc2N)cc1 | inactive
25 | O=C(C[C@@H]1CC[C@@H]2[C@H](COC[C@@H](O)CN2S(=O)(=O)c2ccccc2)O1)NCc1ccncn1 | inactive
26 | C[C@@H]1CCCCO[C@H](CN(C)C(=O)Nc2cccc3ccccc23)[C@H](C)CN([C@H](C)CO)C(=O)c2cc(NS(=O)(=O)c3ccccc3)ccc2O1 | inactive
27 | O=C(O)[C@H](O)c1ccccc1 | inactive
28 | Cc1noc(C)c1S(=O)(=O)Nc1ccc2c(c1)C(=O)N([C@H](C)CO)C[C@H](C)[C@@H](CN(C)S(=O)(=O)c1cn(C)cn1)OCCCC[C@@H](C)O2 | inactive
29 | Cc1noc(C)c1NC(=O)N(C)C[C@@H]1Oc2c(NS(=O)(=O)c3ccccc3)cccc2C(=O)N([C@H](C)CO)C[C@@H]1C | inactive

From the antibiotic and cytotoxicity screens of Wong et al. (2023)
